# From the supplement of paper PMC2702839
# Counter-ions that a name gives are not always drawn. Some of the results follow.
# Test system: Schistosoma mansoni schistosomula
# Test: phenotypic hit in primary schistosomula screen (any phenotype vs DMSO control) (binary (1 = hit, 0 = no phenotype)); higher = active (phenotype induced)
# Conditions: 1 µM; time (d): 7
row,Compound,phenotypic hit
1,CN(C)C(=S)SSC(=S)N(C)C [thiram],active: 1
2,O=C1NC(=O)C(=O)C(=O)N1 [alloxan],inactive: 0
3,CC(C)(C)NCC(O)c1ccccc1Cl (centres undefined) [tulobuterol],inactive: 0
4,Cc1ccc(O)cc1.Cc1cccc(O)c1.Cc1ccccc1O [cresol],inactive: 0
5,CC[C@H]1[C@@H]2C[C@H]3[C@@H]4N(C)c5ccccc5[C@]45C[C@@H]([C@@H]2[C@H]5O)N3[C@@H]1O [ajmaline],inactive: 0
6,C[C@@H]1CC[C@H]2[C@@H](C)C(=O)O[C@@H]3O[C@@]4(C)CC[C@@H]1[C@]32OO4 [artemisinin],inactive: 0
7,CC[C@H]1CN2CCc3cc(OC)c(OC)cc3[C@@H]2C[C@@H]1C[C@H]1NCCc2cc(OC)c(OC)cc21 [emetine],inactive: 0
8,CNC(C)C(O)c1ccccc1 (centres undefined) [racephedrine hydrochloride],inactive: 0
9,COc1ccc(C(=O)O[C@H]2CC[C@@]3(C)[C@@H]4CC[C@H]5[C@]6(O)C[C@H](O)[C@@]7(O)[C@@H](CN8C[C@@H](C)CC[C@H]8[C@@]7(C)O)[C@]6(O)C[C@@]53O[C@]24O)cc1OC [veratridine],inactive: 0
10,CO[C@H]1[C@H](O)[C@H](O[C@H]2CC[C@@]3(C)[C@H](CC[C@@H]4[C@@H]3CC[C@]3(C)[C@@H](C5=CC(=O)OC5)CC[C@]43O)C2)O[C@@H](C)[C@@H]1O [neriifolin],inactive: 0
11,COc1cc([C@@H]2c3cc4c(cc3[C@H](O)[C@H]3COC(=O)[C@H]23)OCO4)cc(OC)c1OC [podofilox],active: 1
12,"CNC(C)[C@H](O)c1ccccc1 (some centres undefined) [ephedrine (1r,2s) hydrochloride]",inactive: 0
13,COc1ccc(C[C@H]2NC[C@H](O)[C@H]2OC(C)=O)cc1 [anisomycin],active: 1
14,CN1[C@@H]2C[C@@H]3C[C@H]1[C@H](O)[C@H]2O3 [scopoline],inactive: 0
15,CC(C)N(C(=O)SCC(Cl)=C(Cl)Cl)C(C)C [triallate],inactive: 0
16,COc1ccc2c(c1)[nH]c1c(C)nccc12 [harmine],inactive: 0
17,CCc1cccc(C)c1N(C(=O)CCl)C(C)COC (centres undefined) [metolachlor],active: 1
18,O=C1c2ccccc2C(=O)c2ccccc21 [anthraquinone],inactive: 0
19,Oc1c(Cl)c(Cl)c(Cl)c(Cl)c1Cl [pentachlorophenol],inactive: 0
20,CNC(=O)Oc1ccc2c(c1)[C@]1(C)CCN(C)[C@@H]1N2C [(-)-Physostigmine],active: 1
21,CN1[C@H]2C[C@H](OC(=O)[C@H](CO)c3ccccc3)C[C@@H]1[C@@H](O)C2 [anisodamine],inactive: 0
22,CN(C)C(=O)Oc1cccc([N+](C)(C)C)c1 [Neostigmine bromide],active: 1
23,COc1ccc(C(CN(C)C)C2(O)CCCCC2)cc1 (centres undefined) [venlafaxine hydrochloride],inactive: 0

row,Compound,phenotypic hit
1,C[C@H](N)[C@H](O)c1ccccc1 [L(-)-Norephedrine],inactive: 0
2,COc1cc2c(cc1OC)-c1c(oc3c4c(ccc3c1=O)OC(C(C)C)C4)CO2 (centres undefined) [dehydrodihydrorotenone],inactive: 0
3,CN1CCc2cc3c(cc2C1O)OCO3 (centres undefined) [hydrastinine hydrochloride],inactive: 0
4,"CC1(C)C2CC(=O)[C@]3(C)C(CC[C@@]4(C)[C@H](c5ccoc5)OC(=O)[C@H]5O[C@]543)[C@@]2(C)C(=O)C[C@H]1O (some centres undefined) [1,7-dideacetoxy-1,7-dioxo-3-deacetylkhivorin]",inactive: 0
5,COc1ccc(C(=O)O)cc1OC [veratric acid],inactive: 0
6,CC(C)C[C@H]1C(=O)N2CCC[C@H]2[C@]2(O)O[C@](NC(=O)[C@@H]3C=C4c5cccc6[nH]c(Br)c(c56)C[C@H]4N(C)C3)(C(C)C)C(=O)N12 [bromocriptine mesylate],inactive: 0
7,CN1[C@@H]2CC[C@H]1C[C@@H](OC(=O)C(CO)c1ccccc1)C2 (some centres undefined) [Atropine sulfate],inactive: 0
8,CCC(C)C(OC(C)=O)C(=O)OC1C(O)C2C3(C)C=CC(=O)C(C)(C)C3CC(OC(=O)C(O)C(C)C)C2(C)C23OC2CC(c2ccoc2)C13C (centres undefined) [heudelottin c],inactive: 0
9,CC(=O)OC1CC(OC(C)=O)C2(C)C(CC(OC(C)=O)C3(C)C2CCC2(C)C(c4ccoc4)CC4OC423)C1(C)C (centres undefined) [havanensin triacetate],inactive: 0
10,"O=C(O)CCCOc1ccc(Cl)cc1Cl [2,4-dichlorophenoxybutyric acid]",inactive: 0
11,CN1[C@@H]2CC[C@H]1C[C@@H](OC(c1ccccc1)c1ccccc1N)C2 (some centres undefined) [Aminobenztropine],inactive: 0
12,CN1Cc2c(ccc3c2OCO3)C2C(O)Cc3cc4c(cc3C21)OCO4 (stereo not drawn) [chelidonine (+)],inactive: 0
13,C[C@]12CCC(=O)C(O)=C1CC[C@@H]1[C@@H]2CC[C@]2(C)C(=O)CC[C@@H]12 [formestane],inactive: 0
14,CCOP(=S)(OCC)Oc1cc(C)nc(C(C)C)n1 [diazinon],inactive: 0
15,CNC(C)(C)Cc1ccccc1 [mephentermine sulfate],inactive: 0
16,CNC(Cc1c[nH]c2ccccc12)C(=O)O (centres undefined) [abrine (l)],inactive: 0
17,COC1=C[C@]23CCCN2CCc2cc4c(cc2[C@@H]3[C@@H]1O)OCO4 [cephalotaxine],inactive: 0
18,COc1cc(C(=O)O)cc(OC)c1OC [eudesmic acid],inactive: 0
19,"O=[N+]([O-])c1ccc(O)c([N+](=O)[O-])c1 [2,4-dinitrophenol]",inactive: 0
20,NCCCNCCSP(=O)(O)O [amifostine],inactive: 0
21,c1ccc2c(c1)[nH]c1cnccc12 [norharman],inactive: 0
22,CCC(C)c1cnc(CC(C)C)c(=O)n1O (centres undefined) [aspergillic acid],inactive: 0
23,COc1cc2occc2c2oc(=O)ccc12 [isobergaptene],inactive: 0

row,Compound,phenotypic hit
1,NCC[C@H](O)C(=O)N[C@@H]1C[C@H](N)[C@@H](O[C@H]2O[C@H](CN)[C@@H](O)[C@H](O)[C@H]2N)[C@H](O[C@@H]2O[C@H](CO)C(O)[C@H]2O)[C@H]1O (some centres undefined) [butirosin sulfate],inactive: 0
2,CCCCCCCCC(=O)NCc1ccc(O)c(OC)c1 [N-Vanillylnonanamide],inactive: 0
3,CC(C)c1ccc2c(c1O)CC[C@H]1C3=C(CC[C@]21C)C(=O)OC3 [triptophenolide],inactive: 0
4,C=C1[C@@H](C)[C@H]2[C@H](Cc3ccccc3)NC(=O)[C@]23OC(=O)/C=C/C(=O)CCC[C@@H](C)C/C=C/[C@H]3[C@@H]1O [cytochalasin a],inactive: 0
5,COc1ccc(/C=C/c2cc(O)cc(O)c2)cc1 [resveratrol 4'-methyl ether],inactive: 0
6,CC(=O)[O][Hg][c]1ccccc1 [phenylmercuric acetate],active: 1
7,O=c1[nH]c2ccccc2n1C1CCN(CCCC(c2ccc(F)cc2)c2ccc(F)cc2)CC1 [Pimozide],inactive: 0
8,C/C=C(\C)C(=O)O[C@H]1C[C@@H](OC(C)=O)[C@@]2(C(=O)OC)CO[C@H]3[C@@H](O)[C@@](C)([C@]45O[C@@]4(C)[C@H]4C[C@@H]5O[C@@H]5OC=C[C@@]54O)[C@H]4[C@]1(CO[C@]4(O)C(=O)OC)[C@@H]32 [azadirachtin],inactive: 0
9,Cc1cc2c(C(C)C)c(O)c(O)c(C=O)c2c(O)c1-c1c(C)cc2c(C(C)C)c(O)c(O)c(C=O)c2c1O [gossypol],inactive: 0
10,CC(=O)Nc1cc([As](=O)(O)O)ccc1O [acetarsol],inactive: 0
11,COc1cccc2c1cc([N+](=O)[O-])c1c(C(=O)O)cc3c(c12)OCO3 [aristolochic acid],inactive: 0
12,c1cc2c(cc1[C@H]1OC[C@H]3[C@@H]1CO[C@H]3c1ccc3c(c1)OCO3)OCO2 [asarinin (-)],inactive: 0
13,C=C1[C@@H]([C@@]2(C)[C@@H](OC(C)=O)CC(=O)O[C@](C)(COC(C)=O)[C@@H]2C(=O)OC)[C@@H](OC=O)[C@H](OC(=O)[C@H](O)[C@H](C)CC)[C@@]2(C)[C@H](c3ccoc3)CC(=O)[C@]12O [prieurianin],inactive: 0
14,COc1c(CC=C(C)C)c2c(c3oc(=O)c(-c4ccc(O)cc4)c(O)c13)C=CC(C)(C)O2 [scandenin],inactive: 0
15,"COc1cc2c(cc1OC)[C@@H]1C(=O)c3ccc(OC)c(CC=C(C)C)c3O[C@@H]1CO2 [rotenonic acid, methyl ether]",inactive: 0
16,CN(C)C(=O)Oc1ccc[n+](C)c1 [Pyridostigmine bromide],inactive: 0
17,CNC(=O)Oc1cccc2c1OC(C)(C)C2 [carbofuran],inactive: 0
18,COC(C)(C)CCC[C@H](C)C/C=C/C(C)=C/C(=O)OC(C)C [methoprene (s)],inactive: 0
19,C[C@@]12C(=O)OC(=O)[C@]1(C)[C@H]1CC[C@@H]2O1 [cantharidin],inactive: 0
20,CCCC(C)(COC(N)=O)COC(=O)NC(C)C (centres undefined) [Carisoprodol],inactive: 0
21,Oc1ccc(Cl)cc1Cc1cc(Cl)ccc1O [dichlorophene],active: 1
22,Cl[C@H]1[C@H](Cl)[C@@H](Cl)[C@@H](Cl)[C@H](Cl)[C@H]1Cl [lindane],inactive: 0
23,CC12CCC3C(CCC4(O)CC(O)CCC34/C=N/NC(N)=O)C1(O)CCC2C1=CC(=O)OC1 (centres undefined) [strophanthidin semicarbazide],inactive: 0
